From publication PMC11431868
No constants are given. Whether binding was seen depends on the method and setting. Binding seen in cells or lysates may run through a third protein. Some entries that bind do so weakly or less than the wild type. Each block holds one molecule with its values, some of them ahead of it.

Chains of the proteins cited; added tags and fusions are not shown.
UniProt Q8BX17: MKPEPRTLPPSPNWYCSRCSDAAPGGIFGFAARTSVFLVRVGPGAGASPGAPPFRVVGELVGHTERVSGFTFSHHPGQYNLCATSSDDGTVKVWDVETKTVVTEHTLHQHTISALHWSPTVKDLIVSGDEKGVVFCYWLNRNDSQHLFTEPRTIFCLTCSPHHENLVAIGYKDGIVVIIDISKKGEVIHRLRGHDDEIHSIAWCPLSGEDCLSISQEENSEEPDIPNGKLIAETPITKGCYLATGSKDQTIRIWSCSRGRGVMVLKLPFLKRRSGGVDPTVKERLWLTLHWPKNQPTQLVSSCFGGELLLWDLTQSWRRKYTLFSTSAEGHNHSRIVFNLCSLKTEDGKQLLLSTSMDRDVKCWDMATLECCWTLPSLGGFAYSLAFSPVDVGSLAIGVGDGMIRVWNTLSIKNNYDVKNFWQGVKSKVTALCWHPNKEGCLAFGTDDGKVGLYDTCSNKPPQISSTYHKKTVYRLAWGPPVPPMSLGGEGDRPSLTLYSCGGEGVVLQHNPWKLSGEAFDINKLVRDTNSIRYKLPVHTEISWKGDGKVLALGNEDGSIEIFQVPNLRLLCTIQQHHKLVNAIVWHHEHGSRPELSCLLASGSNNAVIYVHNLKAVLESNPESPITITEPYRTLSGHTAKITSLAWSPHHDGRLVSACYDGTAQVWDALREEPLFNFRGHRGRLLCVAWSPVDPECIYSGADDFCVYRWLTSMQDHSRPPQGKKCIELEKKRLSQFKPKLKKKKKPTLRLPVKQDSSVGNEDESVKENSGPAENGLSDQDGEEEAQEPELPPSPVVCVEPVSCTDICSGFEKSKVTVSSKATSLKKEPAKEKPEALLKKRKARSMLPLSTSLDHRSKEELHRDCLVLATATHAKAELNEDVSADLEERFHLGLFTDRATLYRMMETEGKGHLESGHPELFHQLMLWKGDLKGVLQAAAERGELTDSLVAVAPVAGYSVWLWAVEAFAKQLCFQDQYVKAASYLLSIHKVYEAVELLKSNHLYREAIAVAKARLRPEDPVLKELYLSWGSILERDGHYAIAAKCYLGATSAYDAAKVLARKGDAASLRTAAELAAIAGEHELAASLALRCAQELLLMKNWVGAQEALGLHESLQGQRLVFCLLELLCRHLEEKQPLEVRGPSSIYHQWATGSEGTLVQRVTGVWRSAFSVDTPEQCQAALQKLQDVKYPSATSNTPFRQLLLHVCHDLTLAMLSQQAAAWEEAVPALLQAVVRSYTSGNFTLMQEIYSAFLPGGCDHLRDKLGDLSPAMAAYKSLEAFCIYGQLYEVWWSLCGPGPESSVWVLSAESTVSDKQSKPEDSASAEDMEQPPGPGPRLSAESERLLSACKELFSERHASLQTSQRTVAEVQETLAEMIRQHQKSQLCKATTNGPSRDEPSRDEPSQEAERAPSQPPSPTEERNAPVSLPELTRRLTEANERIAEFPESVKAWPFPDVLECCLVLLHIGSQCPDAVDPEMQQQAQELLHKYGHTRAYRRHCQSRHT
UniProt Q9JJY4: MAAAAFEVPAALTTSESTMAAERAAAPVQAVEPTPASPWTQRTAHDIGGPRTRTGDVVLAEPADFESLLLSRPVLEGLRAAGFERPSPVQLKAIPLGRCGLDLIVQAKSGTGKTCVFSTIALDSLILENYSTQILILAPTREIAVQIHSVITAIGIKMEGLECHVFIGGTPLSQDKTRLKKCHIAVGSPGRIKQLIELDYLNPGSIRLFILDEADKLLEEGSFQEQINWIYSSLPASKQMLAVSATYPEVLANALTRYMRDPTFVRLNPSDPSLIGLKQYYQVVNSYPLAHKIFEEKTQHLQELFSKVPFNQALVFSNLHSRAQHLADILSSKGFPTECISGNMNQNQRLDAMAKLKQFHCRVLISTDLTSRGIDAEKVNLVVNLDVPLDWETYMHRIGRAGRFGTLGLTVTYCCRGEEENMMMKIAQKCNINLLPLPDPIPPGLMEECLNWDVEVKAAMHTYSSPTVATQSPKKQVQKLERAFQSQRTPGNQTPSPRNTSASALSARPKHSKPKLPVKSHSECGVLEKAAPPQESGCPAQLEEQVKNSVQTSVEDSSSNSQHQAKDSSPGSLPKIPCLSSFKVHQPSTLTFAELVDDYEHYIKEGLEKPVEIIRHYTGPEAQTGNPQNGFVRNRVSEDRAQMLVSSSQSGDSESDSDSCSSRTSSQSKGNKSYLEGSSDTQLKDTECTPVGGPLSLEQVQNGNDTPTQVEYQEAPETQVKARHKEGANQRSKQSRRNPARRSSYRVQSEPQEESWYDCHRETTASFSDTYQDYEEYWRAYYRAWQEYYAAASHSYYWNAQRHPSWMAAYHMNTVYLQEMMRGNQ
UniProt Q9QZR5: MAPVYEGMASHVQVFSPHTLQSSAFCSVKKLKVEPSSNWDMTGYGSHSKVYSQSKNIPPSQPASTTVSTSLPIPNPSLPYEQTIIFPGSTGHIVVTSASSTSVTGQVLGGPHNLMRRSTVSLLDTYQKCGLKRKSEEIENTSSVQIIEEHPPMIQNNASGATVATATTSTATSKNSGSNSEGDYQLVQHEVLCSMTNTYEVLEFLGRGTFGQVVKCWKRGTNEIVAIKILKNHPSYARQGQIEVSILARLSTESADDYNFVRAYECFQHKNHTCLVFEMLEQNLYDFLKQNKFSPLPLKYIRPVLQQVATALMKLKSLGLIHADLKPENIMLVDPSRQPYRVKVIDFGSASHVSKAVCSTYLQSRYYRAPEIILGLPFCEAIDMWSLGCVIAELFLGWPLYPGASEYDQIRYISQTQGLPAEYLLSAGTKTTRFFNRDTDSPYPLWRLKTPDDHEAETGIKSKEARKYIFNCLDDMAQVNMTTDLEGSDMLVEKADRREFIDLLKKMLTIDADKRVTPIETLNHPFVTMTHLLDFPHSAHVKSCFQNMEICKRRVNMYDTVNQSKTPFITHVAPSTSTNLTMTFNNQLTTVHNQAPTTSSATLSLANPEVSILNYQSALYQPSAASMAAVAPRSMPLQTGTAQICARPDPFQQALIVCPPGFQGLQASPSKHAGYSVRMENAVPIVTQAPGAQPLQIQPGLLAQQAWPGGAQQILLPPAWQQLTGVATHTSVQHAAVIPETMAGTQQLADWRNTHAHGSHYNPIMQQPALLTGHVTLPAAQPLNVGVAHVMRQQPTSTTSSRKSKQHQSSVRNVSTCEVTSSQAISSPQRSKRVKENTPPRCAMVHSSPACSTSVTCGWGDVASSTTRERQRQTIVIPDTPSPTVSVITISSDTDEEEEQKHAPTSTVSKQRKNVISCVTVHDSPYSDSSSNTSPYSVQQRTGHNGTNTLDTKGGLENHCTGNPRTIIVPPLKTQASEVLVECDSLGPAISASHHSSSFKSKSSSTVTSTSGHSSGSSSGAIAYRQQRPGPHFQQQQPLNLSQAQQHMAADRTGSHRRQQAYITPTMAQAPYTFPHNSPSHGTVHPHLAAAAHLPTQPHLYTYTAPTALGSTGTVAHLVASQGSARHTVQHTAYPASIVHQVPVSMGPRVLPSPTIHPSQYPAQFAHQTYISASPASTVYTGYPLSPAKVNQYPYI
UniProt P97801: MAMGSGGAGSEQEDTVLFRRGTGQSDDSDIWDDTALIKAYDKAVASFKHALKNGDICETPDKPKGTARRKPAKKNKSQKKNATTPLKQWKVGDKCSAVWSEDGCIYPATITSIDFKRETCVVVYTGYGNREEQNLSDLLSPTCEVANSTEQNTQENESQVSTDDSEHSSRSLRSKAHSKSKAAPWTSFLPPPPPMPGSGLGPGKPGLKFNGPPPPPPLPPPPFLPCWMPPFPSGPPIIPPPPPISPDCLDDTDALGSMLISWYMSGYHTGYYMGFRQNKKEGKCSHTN
UniProt Q921F2: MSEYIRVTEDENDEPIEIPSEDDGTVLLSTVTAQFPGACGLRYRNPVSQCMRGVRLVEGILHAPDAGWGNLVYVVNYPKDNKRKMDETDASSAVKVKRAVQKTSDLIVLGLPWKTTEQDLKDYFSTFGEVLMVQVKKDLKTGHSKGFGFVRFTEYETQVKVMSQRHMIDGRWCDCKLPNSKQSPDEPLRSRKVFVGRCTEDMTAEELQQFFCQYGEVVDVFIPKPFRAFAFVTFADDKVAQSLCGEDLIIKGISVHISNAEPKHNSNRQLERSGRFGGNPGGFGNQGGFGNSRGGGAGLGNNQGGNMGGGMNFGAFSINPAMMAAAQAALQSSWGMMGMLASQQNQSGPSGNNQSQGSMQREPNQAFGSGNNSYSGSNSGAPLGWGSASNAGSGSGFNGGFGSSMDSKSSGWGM

Target: GEMIN5 (mouse (endogenous in NSC34)) (UniProt Q8BX17)
Assay: co-IP; anti-GEMIN5 (GTX130498) on Dynabeads protein A, incubated overnight with 2500-3000 ug of extracts of NSC34 cells treated with DMSO or flunarizine for 2 h; lysis and wash buffer 25 mM Tris-HCl pH 7.4, 150 mM KCl, 1% NP40, 5 mM EDTA, 0.5 mM DTT, RNAse out; not cross-linked; control IgG; read by immunoblot

binding: no binding
Molecule: GEMIN3 (from UniProt Q9JJY4 1-825)

binding: binds
Molecule: HIPK2 (from UniProt Q9QZR5 1-1196)

binding: binds
Molecule: SMN (from UniProt P97801 1-288)

binding: binds
Molecule: TDP-43 (from UniProt Q921F2 1-414)

binding: no binding
B1: STRAP (protein, UniProt Q9Z1Z2 1-350)
chain: MAMRQTPLTCSGHTRPVVDLAFSGITPYGYFLISACKDGKPMLRQGDTGDWIGTFLGHKGAVWGATLNKDATKAATAAADFTAKVWDAVSGDELMTLAHKHIVKTVDFTQDSNYLLTGGQDKLLRIYDLNKPEAEPKEISGHTSGIKKALWCSDDKQILSADDKTVRLWDHATMTEVKSLNFNMSVSSMEYIPEGEILVITYGRSIAFHSAVSLEPIKSFEAPATINSASLHPEKEFLVAGGEDFKLYKYDYNSGEELESYKGHFGPIHCVRFSPDGELYASGSEDGTLRLWQTVVGKTYGLWKCVLPEEDSGELAKPKIGFPETAEEELEEIASENSDSIYSSTPEVKA

binding: no binding
B2: DUSP6 (protein, UniProt Q9DBB1 1-381)
chain: MIDTLRPVPFASEMAICKTVSWLNEQLELGNERLLLMDCRPQELYESSHIESAINVAIPGIMLRRLQKGNLPVRALFTRCEDRDRFTRRCGTDTVVLYDENSSDWNENTGGESVLGLLLKKLKDEGCRAFYLEGGFSKFQAEFALHCETNLDGSCSSSSPPLPVLGLGGLRISSDSSSDIESDLDRDPNSATDSDGSPLSNSQPSFPVEILPFLYLGCAKDSTNLDVLEEFGIKYILNVTPNLPNLFENAGEFKYKQIPISDHWSQNLSQFFPEAISFIDEARGKNCGVLVHCLAGISRSVTVTVAYLMQKLNLSMNDAYDIVKMKKSNISPNFNFMGQLLDFERTLGLSSPCDNRVPTPQLYFTTPSNQNVYQVDSLQST

binding: binds
B3: GEMIN8 (protein, UniProt Q8BHE1 1-238)
chain: MASNWRASASWYSHPVYARYWQHYHHAMLWMQGHQNAYRKFRDSYFTSPWLFPHGALPWNSPAYEAGHPWDSQGQHMAQQESPYRVSHPKSPGQPLRNSSRTQASTRGNEARCEEEELESDSDDEVECDLSNMEITEELRQYFAQTERHREERRRQQQLDAERLNDYVNADHGLYFNHRRSLEPPSEKPWERRQAEMKRLYGNSAPKILAMETAVQLSFDKHCDRKQPKYWPVIPLKF
